Some of the results follow.
tested on: S. aureus RN4220; test: growth inhibition call (relative growth <= 0.2); conditions: 50 µM

With `C[C@H]1CN([C@@H](C)CO)S(=O)(=O)c2ccc(C#Cc3ccc(F)cc3)cc2O[C@@H]1CN(C)C(=O)CN(C)C` as the molecule, how does the growth inhibition call read?
The growth inhibition call was “inactive”.

How did the growth inhibition call turn out when `CN(C)C(=O)c1ccc(-c2cccc(-c3nc(C(=O)NC4CCCC4)cc4c3[C@H](CCO)N([S@@](=O)C(C)(C)C)C4)c2)cc1` was run?
Its growth inhibition call is “inactive”.

With `O=C(C[C@@H]1CC[C@H]2[C@@H](COC[C@H](O)CN2C(=O)Nc2cccc(Cl)c2)O1)NCCCN1CCOCC1` as the molecule, how does the growth inhibition call read?
The growth inhibition call was “active”.

Which growth inhibition call does the source give for `CC(C)NC(=O)Nc1ccc2c(c1)C(=O)N([C@H](C)CO)C[C@@H](C)[C@@H](CN(C)C(=O)Nc1ccc(C(F)(F)F)cc1)OCCCC[C@@H](C)O2` here?
Its growth inhibition call is “inactive”.

With `NCCCc1nc2c(s1)CCCC2` as the molecule, how does the growth inhibition call read?
The growth inhibition call was “inactive”.

For `Cc1noc(C)c1S(=O)(=O)N(C)C[C@H]1Oc2ccc(NC(=O)NC3CCCCC3)cc2CC(=O)N([C@H](C)CO)C[C@@H]1C`, which growth inhibition call is on record?
Its growth inhibition call is “inactive”.

`C[C@@H]1CCCCO[C@@H](CN(C)C(=O)Nc2ccc(C(F)(F)F)cc2)[C@H](C)CN([C@@H](C)CO)C(=O)c2cc(NS(=O)(=O)c3cn(C)cn3)ccc2O1` was tested. Which growth inhibition call did it give?
The growth inhibition call was “active”.

How did the growth inhibition call turn out when `Cc1noc(C)c1S(=O)(=O)Nc1cccc2c1O[C@H](CN(C)S(=O)(=O)c1ccc(F)cc1)[C@H](C)CN([C@@H](C)CO)C2=O` was run?
Its growth inhibition call is “inactive”.

`COc1cccc(NC(=O)N(C)C[C@H]2Oc3cc(Br)ccc3S(=O)(=O)N([C@H](C)CO)C[C@H]2C)c1` was tested. Which growth inhibition call did it give?
Its growth inhibition call is “inactive”.

`COc1ccc(S(=O)(=O)N(C)C[C@@H]2Oc3ccc(NC(=O)Nc4c(C)noc4C)cc3CC(=O)N([C@@H](C)CO)C[C@H]2C)cc1` was tested. Which growth inhibition call did it give?
The growth inhibition call was “inactive”.

Which growth inhibition call does the source give for `C[C@@H]1CCCCO[C@@H](CN(C)C(=O)c2ccccc2)[C@@H](C)CN([C@@H](C)CO)C(=O)c2cc(NC(=O)c3ccccc3)ccc2O1` here?
Its growth inhibition call is “inactive”.

For `Cc1ccc(S(=O)(=O)Nc2ccc3c(c2)C(=O)N([C@@H](C)CO)C[C@@H](C)[C@H](CN(C)C(=O)C2CCCCC2)OCCCC[C@H](C)O3)cc1`, which growth inhibition call is on record?
The growth inhibition call was “inactive”.

`C[C@@H]1CN([C@H](C)CO)C(=O)Cc2cc(NC(=O)NC3CCCCC3)ccc2O[C@@H]1CN(C)Cc1ccc(Oc2ccccc2)cc1` was tested. Which growth inhibition call did it give?
Its growth inhibition call is “inactive”.

How did the growth inhibition call turn out when `COCC(=O)N(C)C[C@@H]1Oc2cc(-c3ccc(OC)cc3)ccc2S(=O)(=O)N([C@@H](C)CO)C[C@@H]1C` was run?
Its growth inhibition call is “inactive”.

How did the growth inhibition call turn out when `C[C@H]1CN([C@@H](C)CO)C(=O)c2cc(-c3cccc(C#N)c3)cnc2O[C@@H]1CN(C)C(=O)c1cnccn1` was run?
The growth inhibition call was “inactive”.

For `NCC[C@@H]1CC[C@@H](NC(=O)C2CCCCC2)[C@@H](CO)O1`, which growth inhibition call is on record?
The growth inhibition call was “inactive”.

`OC[C@@H]1CCCCN1` was tested. Which growth inhibition call did it give?
Its growth inhibition call is “inactive”.

`CC(C)NC(=O)N(C)C[C@@H]1Oc2ccc(NC(=O)c3ccncc3)cc2CC(=O)N([C@H](C)CO)C[C@@H]1C` was tested. Which growth inhibition call did it give?
The growth inhibition call was “inactive”.

How did the growth inhibition call turn out when `O=C(C[C@H]1C[C@H]2c3cc(NC(=O)Nc4ccc(C(F)(F)F)cc4)ccc3O[C@H]2[C@H](CO)O1)NCc1cc(F)ccc1F` was run?
The growth inhibition call was “inactive”.

`C[C@H](CO)N1C[C@H](C)[C@H](CN(C)S(=O)(=O)c2ccccc2F)Oc2cc(C#Cc3ccccc3)ccc2S1(=O)=O` was tested. Which growth inhibition call did it give?
The growth inhibition call was “inactive”.

`COc1ccc(CCN2C(=O)[C@@]3(c4ccc([N+](=O)[O-])cc4)CC(=O)N(CC45CC6CC(CC(C6)C4)C5)[C@@H]3c3ccc(CO)cc32)cc1` was tested. Which growth inhibition call did it give?
Its growth inhibition call is “inactive”.

For `C[C@H](CO)N1C[C@H](C)[C@H](CN(C)S(=O)(=O)c2cn(C)cn2)Oc2ccc(NS(=O)(=O)c3cn(C)cn3)cc2C1=O`, which growth inhibition call is on record?
The growth inhibition call was “inactive”.

`NC(Cc1c[nH]c2ccccc12)C(=O)O` (stereo not given) was tested. Which growth inhibition call did it give?
The growth inhibition call was “inactive”.

For `C[C@@H]1CN([C@@H](C)CO)C(=O)Cc2cc(NC(=O)Nc3ccc(C(F)(F)F)cc3)ccc2O[C@@H]1CN(C)C(=O)NC1CCCCC1`, which growth inhibition call is on record?
The growth inhibition call was “inactive”.

`C[C@@H]1CN([C@@H](C)CO)C(=O)c2cc(NC(=O)Cc3ccccc3)ccc2O[C@H]1CN(C)Cc1ccc(C(F)(F)F)cc1` was tested. Which growth inhibition call did it give?
Its growth inhibition call is “inactive”.

For `C[C@@H]1CCCCO[C@@H](CN(C)C(=O)Nc2ccc3c(c2)OCO3)[C@@H](C)CN([C@H](C)CO)C(=O)c2cc(NS(=O)(=O)c3ccc(Cl)cc3)ccc2O1`, which growth inhibition call is on record?
The growth inhibition call was “inactive”.

Which growth inhibition call does the source give for `C[C@H]1CN([C@@H](C)CO)C(=O)c2cc(Br)cnc2O[C@@H]1CN(C)Cc1ccc2c(c1)OCO2` here?
The growth inhibition call was “inactive”.

Which growth inhibition call does the source give for `NC(=O)NC1CCCCC1` here?
Its growth inhibition call is “inactive”.

With `C[C@H](CO)N1C[C@H](C)[C@@H](CN(C)C(=O)Nc2ccc(F)cc2)Oc2ccc(NC(=O)Nc3cccc4ccccc34)cc2CC1=O` as the molecule, how does the growth inhibition call read?
The growth inhibition call was “inactive”.

How did the growth inhibition call turn out when `C[C@H]1CN([C@@H](C)CO)C(=O)Cc2cc(NC(=O)CCC(F)(F)F)ccc2O[C@@H]1CN(C)Cc1ccc(C(F)(F)F)cc1` was run?
The growth inhibition call was “inactive”.
